Results as given in PubChem BioAssay AID485294 (National Center for Advancing Translational Sciences (NCATS), 2010).
About 150 (0.041%) of roughly 370,000 compounds were called active. The inconclusive results got no clear call from the source; some entries with a clear call stand among them for comparison. Calls follow the shape of the dose curve; as a rule, active = well fitted inhibition curve with a large enough effect; inconclusive = small, poorly fitted or top-dose-only effect; inactive = flat fitted curve, though single readings scatter. Potencies of inconclusive entries are left out as doubtful fits.
Also: nearly all actives have a fitted effect of over 25% in size.
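For activity change, negative = inhibition in this document: 0% = no-compound wells and -100% = no-enzyme wells.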
Potency is read from the fitted curve at half-maximal effect; tags tell the direction and shape of the fitted curve.

Each compound was assayed against Beta-lactamase (Escherichia coli (strain K12)) (UniProt P00811) (assay: qHTS Inhibitors of AmpC Beta-Lactamase (assay with detergent)). Details: AmpC hydrolysis of nitrocefin, absorbance 480 nm, 0.01% Triton; activity change, negative = inhibition: at 114 µM (top of the series).
Sequence of UniProt P00811 (P00811 whole entry, looked up): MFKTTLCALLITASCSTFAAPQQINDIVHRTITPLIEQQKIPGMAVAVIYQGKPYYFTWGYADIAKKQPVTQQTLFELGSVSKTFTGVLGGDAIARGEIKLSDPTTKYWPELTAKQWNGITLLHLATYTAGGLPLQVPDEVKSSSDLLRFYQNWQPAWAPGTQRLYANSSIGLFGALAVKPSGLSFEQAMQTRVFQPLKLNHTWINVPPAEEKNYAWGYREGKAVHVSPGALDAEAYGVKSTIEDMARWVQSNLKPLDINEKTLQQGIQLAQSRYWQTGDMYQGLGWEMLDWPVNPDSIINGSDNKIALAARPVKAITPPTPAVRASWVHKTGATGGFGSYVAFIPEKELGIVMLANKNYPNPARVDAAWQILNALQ
Summary of the method: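 20 mM phosphate pH 7.0 + 0.01% (detergent screen) or 0.0001% Triton X-100; 5.3 nM AmpC reagent; cpd preinc 15 min RT; nitrocefin (800 uM stock) to start; A480 q20 s × 4 min; Activity was normalised to no-enzyme and no-compound control wells.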
For `c1coc(CNc2nc3nonc3nc2NCc2ccco2)c1`, the “activity change, negative = inhibition” value was inactive: 2.35%.
For `Cn1c(CSc2ncn[nH]2)nc2ccccc21`, the Potency was inconclusive [inhibitor, full curve, poor fit].
`CCN1CCc2nc(NC(=O)c3ccc(S(=O)(=O)N(C)C)cc3)sc2C1` was tested, and the Potency was inconclusive [inhibitor, partial curve, poor fit].
With `c1cncc(CNc2nc(N3CCOCC3)nc(N3CCOCC3)n2)c1` the Potency was inconclusive [inhibitor, full curve, poor fit].
For `O=C(COc1ccccc1C(=O)c1cnn(-c2ccccc2)c1)Nc1ccc2ccccc2c1`, the Potency was inconclusive [inhibitor, single point].
`CCOc1ccccc1CN1CCNC(=O)C1CC(=O)NCCc1ccccn1` (stereo not given) was tested, and the Potency was inconclusive [inhibitor, full curve].
With `COc1cccc(CN(C(=O)c2oc3ccc(Br)cc3c2C)C2CCS(=O)(=O)C2)c1` (stereo not given) the “activity change, negative = inhibition” value was inactive: -10.3%.
`Cn1c(=O)c2ncn(CC(=O)NCCC3=CCCCC3)c2n(C)c1=O` was tested, and the Potency was inconclusive [inhibitor, full curve, poor fit].
In the case of `C=CCN(c1ccc(Cl)cc1)S(=O)(=O)c1cccc(C(=O)O)c1`, the Potency is reported as inconclusive [inhibitor, partial curve, poor fit].
For `C[n+]1ccccc1/C=C/c1c(F)cccc1F`, the Potency was inconclusive [inhibitor, partial curve, poor fit].
For `CC(=O)Nc1ccc(S(=O)(=O)N2CCCC(C(=O)N3CCN(c4ccccc4)CC3)C2)cc1` (stereo not given), the “activity change, negative = inhibition” value was inactive: 5.02%.
In the case of `O=C(C=C1CCN(c2ncc(C(F)(F)F)cc2Cl)CC1)NNC(=O)Nc1ccccc1`, the Potency is reported as inconclusive [inhibitor, full curve, poor fit].
With `O=C(COC(=O)c1ccccc1NC(=O)c1ccco1)NCC1CCCCC1` the Potency was inconclusive [inhibitor, partial curve, poor fit].
In the case of `COCCCC1CCN(C(=O)C2CCC(=O)N(CCc3ccccc3)C2)CC1` (stereo not given), the Potency is reported as inconclusive [inhibitor, full curve, poor fit].
`CCc1ccccc1NC(=O)c1ccc(Cn2cc([N+](=O)[O-])cn2)cc1` was tested, and the Potency was inconclusive [inhibitor, partial curve].
`Cc1ccc(-n2nnnc2-c2nc3ccccc3s2)cc1` was tested, and the “activity change, negative = inhibition” value was inactive: 4.94%.
With `CCC(=O)N1CCN(c2ccccc2NC(=O)COc2ccc(C(C)C)cc2)CC1` the “activity change, negative = inhibition” value was inactive: 6.16%.
`Cc1ccc(S(=O)(=O)c2c(C)cc(C)nc2N2CCOCC2)cc1` was tested, and the Potency was inconclusive [inhibitor, full curve, poor fit].
In the case of `C=CCN1C(=O)C(C)S/C1=N\S(=O)(=O)c1ccc(Cl)cc1` (stereo not given), the Potency is reported as inconclusive [inhibitor, full curve, poor fit].
With `O=C(NCCCN1CCOCC1)c1c(F)cccc1F` the Potency was inconclusive [inhibitor, full curve].
With `COc1ccc(CCN(C)C(=O)COc2ccc(N(C)S(=O)(=O)c3ccc(C)cc3)cc2)cc1OC` the Potency was inconclusive [inhibitor, partial curve, poor fit].
For `CCOc1ccc(NC(=O)COC(=O)c2ccc3ncsc3c2)cc1OCC`, the Potency was inconclusive [inhibitor, full curve, poor fit].
For `Cc1cc(=O)oc2c(C)c(OCC(=O)NCCCn3ccnc3)ccc12`, the Potency was inconclusive [inhibitor, partial curve].
`CCOc1ccc(C(=O)NC(C)C2COc3ccccc3O2)cc1` (stereo not given) was tested, and the Potency was inconclusive [inhibitor, single point].
With `O=S(=O)(Nc1cccc2cccnc12)c1ccccc1` the “activity change, negative = inhibition” value was inactive: 1.58%.
For `COc1ccccc1OCc1nn[nH]n1`, the Potency was inconclusive [inhibitor, full curve].
For `O=c1c2nccnc2[nH]c(=S)n1Cc1ccccc1Cl`, the Potency was inconclusive [inhibitor, full curve, poor fit].
For `Cc1cc(C(F)(F)F)nc(SCC(=O)Nc2ccccc2)n1`, the Potency was inconclusive [inhibitor, partial curve, poor fit].
`CCOC(=O)C1CCCN(c2c(Nc3ccc(OCC)cc3)c(=O)c2=O)C1` (stereo not given) was tested, and the Potency was inconclusive [inhibitor, partial curve, poor fit].
In the case of `COc1ccc(-c2c(C(C)=O)c(C)nc3sc4c(=O)[nH]nnc4c23)cc1`, the Potency is reported as inconclusive [inhibitor, partial curve].
`COc1ccc(-c2noc(CSc3nnc(-c4ccncc4)n3-c3ccc(F)cc3)n2)cc1OC` was tested, and the Potency was inconclusive [inhibitor, partial curve, poor fit].
For `COc1ccc(CNC(=O)C2CCC(CNS(=O)(=O)c3ccccc3)CC2)cc1` (stereo not given), the Potency was inconclusive [inhibitor, partial curve].
With `COc1ccc(-c2c(C)c3cc(OC(=O)N4CCOCC4)ccc3oc2=O)cc1` the “activity change, negative = inhibition” value was inactive: -1.71%.
For `Cc1ccc(N2CC(C(=O)Nc3nnc(SCC(=O)Nc4nc(C)cs4)s3)CC2=O)cc1` (stereo not given), the Potency was inconclusive [inhibitor, partial curve].
In the case of `Cc1nc2sccn2c(=O)c1CCN1CCC(=C(c2ccc(F)cc2)c2ccc(F)cc2)CC1`, the “activity change, negative = inhibition” value is reported as inactive: -0.23%.
`O=C(NCc1nnc(SCC(=O)N2CCN(c3ccccc3)CC2)o1)c1c(F)cccc1Cl` was tested, and the Potency was inconclusive [inhibitor, full curve, poor fit].
`CC[N+](CC)(CCO)CCCN1C(=O)C2CC=C(Cl)CC2C1=O` (stereo not given) was tested, and the Potency was inconclusive [inhibitor, partial curve, poor fit].
In the case of `O=C(COC(=O)C1CCC1)Nc1cccc(S(=O)(=O)N2CCOCC2)c1`, the Potency is reported as inconclusive [inhibitor, full curve, poor fit].
In the case of `Cc1c(C(=O)N2CCC(C)CC2)c(S(=O)(=O)NCc2ccc(Br)cc2)c(C)n1C`, the “activity change, negative = inhibition” value is reported as inactive: 9.19%.
For `Cc1ccccc1NS(=O)(=O)c1cc(S(C)(=O)=O)ccc1C`, the Potency was inconclusive [inhibitor, full curve].
For `CCN(CC(=O)Nc1ccc2c(c1)OCCO2)c1ccc(S(=O)(=O)N2CCOCC2)cn1`, the Potency was inconclusive [inhibitor, partial curve, poor fit].
With `Oc1c(C(c2ccccc2F)N2CCCCC2)sc2nc(-c3ccco3)nn12` (stereo not given) the “activity change, negative = inhibition” value was inactive: 0.64%.
With `COc1ccc(NCc2nc3ccccc3n2CCOc2ccccc2)cc1` the “activity change, negative = inhibition” value was inactive: 1.61%.
For `CC1(C)Cc2c(ccc3ccccc23)C(NNC(=O)c2cccnc2)=N1`, the Potency was inconclusive [inhibitor, partial curve].
`Cc1cccc(NC(=O)Cn2c(=O)n(CCC(=O)NC3CCCC3)c(=O)c3ccccc32)c1` was tested, and the Potency was inconclusive [inhibitor, single point].
For `C[C@H]1CNC(=O)C(=O)N1C[C@H](Cc1ccc(O)cc1)NC(=O)CC12CC3CC(CC(C3)C1)C2`, the Potency was inconclusive [inhibitor, full curve, poor fit].
In the case of `COC(=O)c1cccc(NC(=O)Nc2ccc(Cl)cc2Cl)c1`, the “activity change, negative = inhibition” value is reported as inactive: 13.2%.
`CC(=O)Oc1ccc(C(=O)NCc2ccco2)cc1` was tested, and the Potency was inconclusive [inhibitor, single point].
`O=C(NCc1ccco1)c1cccc2ccccc12` was tested, and the Potency was inconclusive [inhibitor, full curve, poor fit].
For `Cc1occc1C(=O)Nc1ccc2c(c1)CCC2`, the Potency was inconclusive [inhibitor, full curve, poor fit].
With `CCCC(=O)NCCCc1nc2ccccc2n1C` the Potency was inconclusive [inhibitor, partial curve, poor fit].
For `O=C(CSCc1ccccc1)NCc1ccc2c(c1)OCO2`, the Potency was inconclusive [inhibitor, full curve].
For `O=C(c1ccco1)N1CCN(C(=O)c2cc(-c3ccccc3)nc3ccccc23)CC1`, the Potency was inconclusive [inhibitor, full curve].
`Clc1ccc(CSc2nnc(-c3c[nH]c4ccccc34)o2)cc1` was tested, and the Potency was inconclusive [inhibitor, full curve, poor fit].
`CN(C)c1nccc(NCc2ccccc2)c1C#N` was tested, and the Potency was inconclusive [inhibitor, single point].
In the case of `CCN(CC)CCCC1(CN)OCCc2ccccc21` (stereo not given), the Potency is reported as inconclusive [inhibitor, full curve].
For `Cc1nc(=O)c(-c2ccccc2)c(C)n1-c1ccc(C(=O)O)cc1`, the “activity change, negative = inhibition” value was inactive: -12%.
For `CCOC(=O)c1cc(C#N)c(N2CCCC2)nc1-c1ccccc1`, the Potency was inconclusive [inhibitor, single point].
For `CCCNC(=O)c1ccc(N2CCC3(CC2)CC(c2cccc(Br)c2)=NO3)c(NC(=O)c2c(Cl)cccc2Cl)c1`, the Potency was inconclusive [inhibitor, single point].
In the case of `CN1C(=O)N(CC(=O)N2CCN(S(=O)(=O)/C=C/c3ccccc3)CC2)C(=O)C12CCCCC2`, the “activity change, negative = inhibition” value is reported as inactive: -2.13%.
In the case of `CCOC(=O)c1nc(Nc2cc(Cl)ccc2OC)c2ccccc2n1`, the “activity change, negative = inhibition” value is reported as inactive: 5.07%.
For `O=Nc1c(O)[nH]c2ccc(F)cc12`, the Potency was inconclusive [inhibitor, full curve].
With `COc1cc(C(=O)COC(=O)c2cnc(C)cn2)ccc1OC(F)F` the Potency was inconclusive [inhibitor, single point].
With `O=C(OC1CCCCC1)c1ccc2c(c1)C1C=CCC1C(C(=O)O)N2` (stereo not given) the “activity change, negative = inhibition” value was inactive: -7.68%.
For `COc1ccc(OC)c(NC(=O)C2C3C=CC(C3)C2C(=O)NCc2ccccn2)c1` (stereo not given), the Potency was inconclusive [inhibitor, partial curve, poor fit].
